In ChEMBL document CHEMBL1201862, “PubChem BioAssay data set” (2004):

system: NCI-H322M; assay: growth of human tumour cells (NCI), 48 h

Compound	GI50
COc1c(CC=C(C)C)c(O)c(C(CC(C)C)c2c(O)c(CC=C(C)C)c(O)c(C(C)=O)c2O)c(O)c1C(C)=O (stereo not given)	active: 0.423 µM
CC1CC(C2=CC=CCS2)=Nc2ccccc2S1 (stereo not given)	inactive: > 100 µM
COc1ccc(C(=O)O)c(Cc2ccc3ccccc3c2)c1	inactive: > 100 µM
O=[N+]([O-])C(/C(Cl)=C(/Cl)N1CCCCC1)=C1\NCCO1	inactive: > 100 µM
N[C@H](C(=O)O)[C@@H]1CC(Br)=NO1	inactive: 14.8 µM
Cc1ccc(S(=O)(=O)N/N=C2/CC3CCC4CC2CC34)cc1 (stereo not given)	inactive: > 100 µM
Cc1ccc(N2C(=O)/C(=C3\Sc4c(nc(C)n(C)c4=O)N3c3ccccc3)SC2=S)cc1	inactive: 57.3 µM
N=c1oc2ccc(Cl)cc2cc1C(=O)NCc1ccccc1	inactive: > 100 µM
O=C(NC1(C(=O)O)CCCC1)c1ccccc1	inactive: > 100 µM
COC(=O)C(C(=O)C(=O)Nc1ccc(OC)cc1[N+](=O)[O-])c1nc2cc(C)c(C)cc2nc1O (stereo not given)	inactive: > 100 µM
CO/C(N)=C(C#N)/N=C/c1ccccc1	inactive: > 100 µM
CN(C)c1ccc(/N=N\c2cccc3ccoc23)cc1	inactive: > 100 µM
FC(F)(F)c1ccc2nc3n(c2c1)C(c1c(Cl)cccc1Cl)SC3 (stereo not given)	inactive: 17.5 µM
C=CCc1cccc(/C=N\N/C(N)=N/O)c1O	inactive: 3.72 µM
NCCCN(CCCCN(CCCN)C(=O)OCc1ccccc1)C(=O)OCc1ccccc1	inactive: > 100 µM
CCCCCCCCCCCCCCCCC(C(=O)O)C(O)(CC(=O)O)C(=O)O (stereo not given)	inactive: 19.3 µM
CCCCCCCCCCCCCCCC(=O)OCC1OC(n2cc(F)c(=O)[nH]c2=O)C(NC(=O)N(CCCl)N=O)C(O)C1O (stereo not given)	inactive: 4.4 µM
CC(=O)OC1CC2C(C)(C)C(=O)C=C[C@]2(C)C2CCC3(C)C(=CC(=O)C3c3ccoc3)[C@]12C (stereo not given in full)	inactive: 15.3 µM

Compound	GI50
COc1cc(/C=C/c2ccc(C)cc2)cc(OC)c1OC	inactive: 4.85 µM
C/C=C1\C(=O)O[C@H]2C/C(C)=C/CC/C(C)=C/CC[C@@]3(C)O[C@@H]3C[C@@H]12	inactive: > 100 µM
[N-]=[N+]=N[C@H]1C[C@@H](CO)O[C@H]1n1cnc2c(N)ncnc21	inactive: > 100 µM
C=C1C(=O)OC2/C=C(\CO)C(OC(C)=O)CC(O)/C(C)=C/C(OC(=O)C(C)CC)C12 (stereo not given)	inactive: 72.9 µM
N#CC1CC2(CCN1C(=O)c1ccccc1)OCCO2 (stereo not given)	inactive: > 100 µM
COc1ccc(-c2nc(O)c3ccccc3n2)cc1OC	inactive: > 100 µM
COc1cc(S(=O)(=O)Nc2ccc(-c3csc(N4C(=O)CSC4c4ccccc4)n3)cc2)ccc1Cl (stereo not given)	inactive: 6.75 µM
COc1ccc(CC#C/C=C/C(=O)NCC(C)C)cc1	inactive: > 100 µM
COc1cc(CNNC(N)=S)cc(OC)c1OC	inactive: > 100 µM
C#CCN(Cc1ccc2nc(-c3ccccc3)c(Cl)nc2c1)c1ccc(Cl)c(Cl)c1	inactive: 86.9 µM
CC(=O)Oc1c(C)cc(-c2cc(C)c(OC(C)=O)c(C)c2)cc1C	inactive: 18.8 µM
COc1ccc(C[C@H](N)C(=O)N2C[C@@H](CO)C[C@@H](n3ccc(=O)[nH]c3=O)C2)cc1	inactive: > 100 µM
COc1ccccc1N/C(SCc1ccccc1)=C(/C(Cl)=C(Cl)Cl)[N+](=O)[O-]	inactive: 27.9 µM
Cc1n[nH]c(C(F)(F)F)c1/N=N/N(C)C	inactive: 16.2 µM
CC1=C(CCC(C)CO)O[C@H]2C[C@H]3[C@@H]4CC[C@H]5C[C@@H](O)CC[C@]5(C)[C@H]4CC(=O)[C@]3(C)[C@@H]12 (stereo not given in full)	inactive: 26.3 µM
CCCCCCCCCCSCC(CO)NC(=O)/C=C/c1c(C)[nH]c(=O)[nH]c1=O (stereo not given)	active: 710 nM and active: 1.07 µM
Cc1ccc2c(/C=C/c3ccc(N(C)C)cc3)ccnc2c1C	inactive: 13.4 µM

Where “and” joins values, the source holds several entries; their conditions need not be identical. Identical values can stand only once.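 Five compound concentrations were applied to cells in 96-well plates for 48 hours; endpoints were derived by simple linear interpolation of the resulting dose-response curve. Here, GI50 denotes the concentration required for 50% inhibition of growth.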 Calls of active or inactive are those of the source. Cut-off read from the data, not from the text of the source: active = GI50 up to about 1.1 µM and inactive = higher.
